Source: ChEMBL document CHEMBL4888484, “Replenishing the malaria drug discovery pipeline: Screening and hit evaluation of the MMV Hit Generation Library 1 (HGL1) against asexual blood stage Plasmodium falciparum ,using a nano luciferase reporter read-out” (2022)
The campaign covered roughly 150,000 compounds. About 540 (0.36%) showed an effect of 50% or more. Some of the results follow.

Each molecule was assayed on Plasmodium falciparum (assay: Primary screen in NF54 nanoGlo assay, in single point, at 2uM, 72h; a lower Z score goes with more inhibition). Conditions: timepoint 72 hour.
Assay type: functional, Erythrocyte

SMILES	% Inhibition [%]	Z score
Cc1ccc(C(=O)N2C[C@@H]3CN(C4CCCC4)C[C@]3(C(=O)O)C2)cc1	-5	0.81
CCN1CC2(CCN(c3ccc(C(=O)O)cn3)CC2)CC1=O	-9	0.85
CC1CN(C(=O)COC(=O)c2ccc3nccnc3c2)CC(C)O1 (stereo not drawn)	-6	1.05
Cc1ccccc1N1CCN(C(=O)c2n[nH]c3c2CN(C(=O)Cc2ccc(Cl)cc2Cl)CC3)CC1	4	-0.69
COc1ccc(C(=O)Nc2ccc(-n3nc(OCc4ccc(F)cc4)nc3-c3cccc(F)c3)cc2)cc1	0	-0.05
O=C(NC1CC(=O)N2CCCCC12)N1CCCC(OC2CCC2)C1 (stereo not drawn)	-13	1.15
COc1cc(NC(=O)CN(CCOc2ccccc2)CCOc2ccccc2)cc(OC)c1	-16	1.69
Cc1occc1C(=O)N[C@H]1CCCC2(C1)OCCO2	-5	1.09
CCCc1nc(CNC(=O)c2sc(OC)nc2C)cs1	9	-1.89
O=C(c1cnn(Cc2ccccc2)c1)N1CC2CCCCC2C1 (stereo not drawn)	-13	1.96
O=c1[nH]c2cc3nc(-c4cc(Cl)ccc4OCCCn4ccnc4)[nH]c3cc2[nH]1	0	0.02
CN(C)CCOc1ccc(C(=O)Nc2cccc3[nH]ccc23)cn1	-7	0.95
O[C@@H]1c2ccc(-c3cc(F)cc(Cl)c3)cc2OC[C@H]1N1CCCC1	-9	1.17
COc1ncc(NC(=O)c2ccc3c(c2)OCO3)c(OC)n1	-8	1.44
COc1ccc2[nH]c3c(c2c1)CCN1C(=O)N(c2ccc(C(=O)NCc4ccccc4Cl)cc2)C(=O)[C@]31C	-9	1.22
COc1cc([C@H]2CC(=O)NCc3nc(N)sc32)ccc1OCC=C(C)C	-2	0.19
COc1ccc(NC(=O)c2ccc(NC(=O)Cn3c(=O)ccn(Cc4ccccc4)c3=O)cc2)cc1	-19	1.94
Cc1cc(O)n2nc(Cc3nc([C@H]4CCOC4)no3)nc2n1	-2	0.4
CCc1nnc(CNC(=O)Nc2cc(-n3cnnn3)cc(C)c2C)s1	-6	0.74
CC(NC(=O)COCC1CCCO1)c1csc2ccccc12 (stereo not drawn)	-16	2.06
CN(Cc1ccccc1)C(=O)[C@H]1O[C@H](CCN2CCOCC2)CC[C@@H]1O	-8	1.19

SMILES	% Inhibition [%]	Z score
Cn1c(CN2CCc3ccccc32)cc(=O)n(C)c1=O	-11	1.49
COc1ccc(C(=O)N2Cc3cccnc3C2)cc1C	-19	2.22
CC(C)c1ccc2cc(C(=O)N3CCO[C@]4(CNCCOC4)C3)[nH]c2c1	1	-0.1
CC(NC(=O)c1ccc(OC2CCOC2)nc1)c1ccccc1 (stereo not drawn)	-5	1.02
CCNC(=O)CN(CC)C(=O)c1cc(F)c(Cl)cc1Cl	-6	0.47
CC[C@H](C)NC(=O)NCCc1ccc(CC2CCN(C(C)C)CC2)cc1	7	-0.86
Cc1nccn1CC[C@H](NCc1cn(C)nc1-c1ccc2c(c1)OCCO2)c1ccccc1	-17	1.5
CC(C)[C@@](C)(O)CNC(=O)c1sccc1OC(F)F	-7	1.34
Cc1cnc2c(C(=O)N3CCc4[nH]nc(-c5ccccc5F)c4C3)cnn2c1	-18	2.4
CN1CC2(C[C@H]1c1noc(-c3ccccn3)n1)CN(C(=O)CN1CCOCC1)C2	-9	1.49
N#Cc1cc(NC2CCCC2CO)nc2ccccc12 (stereo not drawn)	-11	1.66
CCC[C@H]1CN(C(=O)c2ccc(C)s2)C[C@@H]1C(=O)O	-4	0.62
Cn1c(CN2CCN(C(=O)C3CCCC3)CC2)cc(=O)n(C)c1=O	-6	0.53
Cc1ccc(C(F)(F)F)cc1NC(=O)N1CCO[C@]2(CCOC2)C1	10	-1.1
O=C(c1cc(F)ccc1F)N1CC[C@H](c2nc(C3CCOCC3)no2)C1	-28	4.15
Cc1c(C(=O)NCc2ccccc2)c(C)n2cnn(CC(=O)Nc3ccccc3)c(=O)c12	-14	2.21
CC1=NN(c2ccc(C)cc2)C(=O)C12Cc1cc(C(F)(F)F)ccc1N1CCC(Cc3ccccc3)CC12 (stereo not drawn)	-1	0.19
O=C(c1cccs1)N1CCC[C@H](NS(=O)(=O)N2CCCCC2)C1	-10	1.47
Cc1nc(C(=O)NCCN2CCCC2)c(C)o1	4	-0.49
CC(C)(C)CC(=O)N[C@H](c1cnc2ccccc2c1)C1CC(O)C1 (stereo partly drawn)	-7	1.37
O=C(NCc1ccccn1)N1CCC[C@H]1c1ccc[nH]1	-1	0.16

SMILES	% Inhibition [%]	Z score
CCOc1ccc(Cl)cc1S(=O)(=O)N1CCC[C@H](C(=O)NCCCn2ccnc2)C1	-34	3.98
COc1cccc(N2C(=O)N[C@H](C)C2=O)c1	36	-1.61
O=C(NCC[C@H]1CCCN(CCC(F)(F)F)C1)c1ccncn1	-8	1.07
Cn1ncc(-c2ccccc2)c1NC(=O)N1CCN[C@@H]2CS(=O)(=O)C[C@@H]21	-3	0.46
CC(C)[C@H](CNC(=O)c1nc2c(s1)CCC2)N1CCN(C)CC1	-5	0.83
CC1CN(C(=O)Cn2cc(NC(=O)c3cccc(F)c3F)cn2)CC(C)O1 (stereo not drawn)	8	-1.01
N#Cc1cccc(COc2cccc(NC(=O)C(=O)NCc3cc[nH]n3)c2)c1	-7	1.16
CC1(C)C[C@]1(CNC(=O)CCc1cc(O)no1)c1ccccc1	6	-1.09
COc1ccccc1Cn1c(C(=O)O)cc2ccccc2c1=O	-14	1.78
CCN1CC2(CCN(C(=O)N(C)C)CC2)C[C@@H](c2ccccc2)C1=O	-8	0.97
OC[C@@H]1COCCN(c2nccc(C(F)(F)F)n2)C1	-13	2.51
CC1=CC(c2ccccc2)=Nc2nonc2N1	4	-0.75
COC(=O)CN(CC(=O)OC(C)(C)C)C(=O)c1cc(F)ccc1F	-20	2.48
O=C(O[C@@H](Cn1cncn1)c1ccc(Cl)cc1)c1ccc(F)cc1	-16	1.87
COc1cc([C@H]2CC(=O)Nc3ncn(-c4cccc(C(F)(F)F)c4)c32)ccc1O	7	-0.88
O=S(=O)(NCC1(O)CCCC1)c1ccc2ccccc2c1	-9	1.51
CC(C)N1CC[C@H]2COC(=O)N2c2ccccc2C1	1	-0.14
COc1ccc(OC)c(NC(=O)N2CC[C@H](N(CCN3CCCCC3)C(=O)N(C)C)C2)c1	-3	0.44
CC(C)N(CCC#N)Cn1nc(Nc2cccc(Br)c2)sc1=S	-12	2.26
Cc1ncnc2c1CCC(=O)N2CCC1=CCCCC1	-19	2.75
CC(=O)Nc1ccc(NC(=O)CCc2c(-c3ccc(F)cc3)nc3ccccn23)cc1	1	-0.18

SMILES	% Inhibition [%]	Z score
Cc1cc(=O)n(CC(=O)Nc2ccccc2C)c(-c2ccc(F)cc2)n1	-6	0.52
O=C(Oc1ccccc1-c1cnc2ccccc2n1)c1ccc(F)cc1	2	-0.3
Cc1n[nH]c([C@@H]2CN(C(=O)NC3CCCC3)CCCN2Cc2ccccc2)n1	-14	2.68
CCn1c(NC(=O)C2CCCCC2)c(-c2ccc(Cl)cc2)c(=O)c2ccccc21	33	-3.76
COc1cccc(Nc2c3c(nc4ncnn24)CCCC3)c1	-10	0.94
CC12CCCN1C(=O)N(C1CCN(c3ccccc3Cl)C1=O)C2=O (stereo not drawn)	3	-0.35
CCCOc1ccc2c(c1)OCC(C(=O)N1CCC[C@H](C(N)=O)C1)=C2	37	-4.2
CCN(CC(C)C)c1c(N)n(Cc2ccccc2)c(=O)[nH]c1=O	-5	0.47
COCC(C)(C)NS(=O)(=O)c1c(C)cc(C)c2nonc12	-8	0.85
CCC1CC(NC(=O)N[C@H]2CCO[C@@H]2c2ccnn2CC2CC2)CCO1 (stereo partly drawn)	4	-0.7
CC1CC1C(=O)N1CCN(S(=O)(=O)c2ccccc2)CC1 (stereo not drawn)	-14	1.98
CN(C)C(=O)NCc1ccc(C#N)c(F)c1	-1	0.1
Cc1ccccc1[C@@H](NC(=O)N1CCNC(=O)CC1)C(C)(C)C	-5	0.65
CN(c1nc2ccc(F)cc2n1C)[C@H]1CCOC1	-4	0.79
O=S(=O)(CCO)c1ccc(NCc2ccc(Cl)s2)cc1	-5	0.74
C[C@H]1CN(CC(=O)NCCn2cccn2)Cc2ccccc2O1	-5	0.99
CC(O)CC(C)CNC(=O)c1c(O)cccc1Cl (stereo not drawn)	1	-0.05
COCCn1cnnc1CCNC(=O)c1cccc(-c2ccco2)c1	-4	0.52
Cc1cc2cc(CNC(=O)c3ccc(Br)o3)ccc2n1C	-3	0.45
Cn1ccnc1C(=O)Cc1ccc(F)cc1	-2	0.36
CNC(=NCc1ccccc1OCCC(C)C)NC	6	-0.91
